Test results published in publication PMC4336329 (PLoS ONE, 2015).
In all, about 310,000 compounds went through this assay and about 14,000 (4.5%) showed an effect of 50% or more. The effect is printed as a negative number. The list shows a part of the results.

Biological target: human ether-à-go-go-related gene (hERG) potassium channel (human, UniProt Q12809)
Test: primary screen, population patch clamp on CHO cells stably expressing hERG
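Note: peak tail current of the secondary pulse compared with the same well before compound.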

human ether-à-go-go-related gene (hERG) potassium channel, sequence (Q12809 whole entry, looked up): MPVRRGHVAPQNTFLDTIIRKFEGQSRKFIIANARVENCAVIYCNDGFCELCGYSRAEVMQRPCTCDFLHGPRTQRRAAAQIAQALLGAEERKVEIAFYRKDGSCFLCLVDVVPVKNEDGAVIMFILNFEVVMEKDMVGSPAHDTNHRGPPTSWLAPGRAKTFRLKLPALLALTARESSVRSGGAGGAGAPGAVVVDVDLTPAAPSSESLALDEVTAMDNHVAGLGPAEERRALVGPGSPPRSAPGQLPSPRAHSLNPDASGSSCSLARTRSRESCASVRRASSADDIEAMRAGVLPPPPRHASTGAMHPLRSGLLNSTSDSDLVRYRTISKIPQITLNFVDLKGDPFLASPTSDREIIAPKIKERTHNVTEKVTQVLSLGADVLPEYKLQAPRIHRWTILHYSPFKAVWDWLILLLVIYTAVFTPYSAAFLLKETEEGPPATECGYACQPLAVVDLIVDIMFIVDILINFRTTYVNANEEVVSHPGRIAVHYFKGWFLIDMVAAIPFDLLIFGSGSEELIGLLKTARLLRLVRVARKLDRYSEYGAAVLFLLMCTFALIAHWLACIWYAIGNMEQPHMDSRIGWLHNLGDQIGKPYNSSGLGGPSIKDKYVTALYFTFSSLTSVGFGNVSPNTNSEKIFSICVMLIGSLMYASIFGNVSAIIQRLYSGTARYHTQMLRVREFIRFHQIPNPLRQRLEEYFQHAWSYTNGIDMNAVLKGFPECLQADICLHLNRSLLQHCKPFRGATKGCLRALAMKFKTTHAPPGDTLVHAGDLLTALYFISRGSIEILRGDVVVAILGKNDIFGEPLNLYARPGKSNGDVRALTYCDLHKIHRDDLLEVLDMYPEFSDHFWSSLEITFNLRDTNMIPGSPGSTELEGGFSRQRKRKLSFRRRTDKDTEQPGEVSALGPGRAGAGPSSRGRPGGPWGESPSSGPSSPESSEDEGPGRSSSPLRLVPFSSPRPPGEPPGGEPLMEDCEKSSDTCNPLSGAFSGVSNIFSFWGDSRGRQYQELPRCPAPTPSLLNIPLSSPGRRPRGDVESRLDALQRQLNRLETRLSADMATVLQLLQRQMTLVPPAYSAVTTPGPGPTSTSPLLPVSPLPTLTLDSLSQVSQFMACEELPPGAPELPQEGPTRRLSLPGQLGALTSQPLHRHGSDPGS

Row | Compound | hERG current change (%, negative = inhibition) at 10uM [%]
1 | Cc1cc([N+](=O)[O-])cc2c1NC(=O)C2(O)N1CCCCCC1 (stereo not shown) | -13.7
2 | O=C(C1CCCCN1S(=O)(=O)c1ccccc1)N1CCCCC1 (stereo not shown) | -1.03
3 | O=C(CSC1CN(C(c2ccccc2)c2ccccc2)C1)N/N=C/c1ccccc1 | 1.64
4 | COc1cc(Cl)ccc1OCc1cc(C(=O)N[C@H]2CCCCNC2=O)no1 | -23
5 | CCC(C)c1ccc(N(CC(=O)NC(C)(C)C)C(=O)CNC(=O)c2cccs2)cc1 (stereo not shown) | 22.7
6 | Cc1ccc(S(=O)(=O)N2CCC(C(=O)OCC(=O)N3CCCCC3C)CC2)cc1C (stereo not shown) | -0.662
7 | CC(=O)Nc1ccc(S(=O)(=O)N2CCCc3ccccc32)cc1 | -16.7
8 | Cn1nnc2cc(NC(=O)Nc3cccc(C(F)(F)F)c3)ccc21 | 19
9 | Cc1ccc2c(c1)cc1c(=O)n(CC(=O)NCc3ccccn3)nc(C)n12 | -7.45
10 | COc1ccccc1C(CNC(=O)C1CC(=O)N(Cc2ccccc2)C1)N1CCCC1 (stereo not shown) | 9.32
11 | S=c1[nH]nc(-c2cccnc2)n1/N=C/C(Cl)=C\c1ccccc1 | 10.4
12 | CCN(CC)c1ccc(S(=O)(=O)N2CCOCC2)cc1NC(=O)COC(=O)c1ccco1 | -34.9
13 | COC(=O)C1CCN(C(=O)COC(=O)c2cc([N+](=O)[O-])ccc2N2CCOCC2)CC1 | -13.6
14 | CC(/C=C1\SC(=S)N(NS(=O)(=O)c2ccccc2)C1=O)=C\c1ccccc1 | -5.09
15 | CC(C)N(Cc1ccccc1)S(=O)(=O)c1ccc2c(c1)NC(=O)CO2 | 5.3
16 | O=C(c1cn(-c2ccccc2)nc1-c1ccccc1)n1nnc2ccccc21 | 12
17 | CCOC(=O)N1CCC(NS(=O)(=O)c2cc(C(=O)OC)n(C)c2)CC1 | 5.24
18 | O=C(NCc1ccco1)C1CCCN1C(=O)Nc1ccccc1[N+](=O)[O-] (stereo not shown) | 8.59
19 | CN(C)/C=C(\C#N)C(N)=C(C#N)C#N | 16.9
20 | Cc1cc(C)c(C#N)c(OCC(=O)Nc2ccccc2)n1 | 12.1
21 | Cc1ccc(C)c(C(=O)CSc2nc(C)cc(=O)[nH]2)c1 | 10.9
22 | Cc1cc(C)n2cc(CSc3nnnn3C)nc2n1 | 2.06
23 | Cc1c(O)c(=O)ccn1Cc1ccccc1 | 6.39
24 | O=S(=O)(c1ccc(F)cc1)N1CCN(c2ccc(F)cc2)CC1 | -14.5
25 | CC(C)CNC(=O)c1ccccc1NC(=O)CN(c1ccc2c(c1)OCCO2)S(C)(=O)=O | 2.61
26 | COc1ccc(C(C)=O)cc1CC(=O)Nc1ccc2c(c1)CCC2 | 4.13
27 | CCCSc1ccc([C@@H]2[C@H]3C(=O)N(CC)C(=O)[C@H]3[C@]3(C(=O)OC)CCCN23)cc1OC.O=C(O)C(F)(F)F | -34.8
28 | Brc1ccccc1OCCOc1cccc2cccnc12 | 14.1

Row | Compound | hERG current change (%, negative = inhibition) at 10uM [%]
29 | COc1ccc(NC(=O)c2sc(-c3ccccc3)nc2C)c(OC)c1 | 11.9
30 | Cc1c(OCC(=O)NCCN2CCOCC2)ccc2c1oc(=O)c1ccccc12 | -59.6
31 | COc1ccc2[nH]c(=O)c(CN(C)C(=O)c3ccncc3)cc2c1 | -4.37
32 | Cc1nc(CC(=O)N2CCN(S(=O)(=O)c3ccccc3C#N)CC2)cs1 | 10.3
33 | CC(=O)Nc1ccc(NC(=O)CCCSc2nc3ccccc3s2)cc1 | 5.25
34 | CCOC(=O)[C@H]1[C@H]2COc3ccccc3[C@@H]2N2C(=O)c3ccc(C)cc3NC(=O)[C@@]12C | -3.64
35 | CCc1ccc(OCCCC(=O)Nc2cccc(C(=O)O)c2)cc1 | 10.7
36 | COc1ccc2[nH]c(=O)c(CN(Cc3ccccc3OC)Cc3nnnn3CC3CCCO3)cc2c1 (stereo not shown) | -40.7
37 | CCCCOC(=O)c1ccc(NC(=O)COC(=O)CSc2nc(C)cc(C)n2)cc1 | 13.5
38 | CCCOc1ccc(-c2nnn(CC(=O)N3CCCCC3)n2)cc1 | 12.9
39 | CC(=O)NC1=NN(C(C)=O)C2(S1)C(=O)N(CC(C)C)c1ccc(C)cc12 (stereo not shown) | 12.1
40 | Cn1c(=O)c2c(SCC(=O)N3CCOCC3)nc(C3CC3)nc2n(C)c1=O | -11.6
41 | O=C(c1ccc2c(=O)n3c(nc2c1)CCCCC3)N1CCN(c2ccc([N+](=O)[O-])cc2)CC1 | -73
42 | O=C(CCl)c1ccc2[nH]c(=O)oc2c1 | 11.8
43 | COc1cccc(/C=N/NC(=O)C[n+]2ccccc2)c1OC.[Cl-] | -6.23
44 | CN1CCN(S(=O)(=O)c2cccc(C(=O)Nc3nc(-c4ccccc4)cs3)c2)CC1 | -25.9
45 | O=C(Nc1ccc(S(=O)(=O)N2CCCC2)cc1)c1cccnc1 | 5.48
46 | CCCCn1c(N)c(N(CCOC)C(=O)CN2C(=O)C3CCCCC3C2=O)c(=O)[nH]c1=O (stereo not shown) | 2.24
47 | CCSc1nnc(Cn2c(=O)sc3ccccc32)n1C | 16.2
48 | COc1ccc(/C=N/NC(=O)c2ccn[nH]2)cc1CN1CCOCC1 | -14.8
49 | CCOC(=O)c1cnc(SCc2nc(N)nc(Nc3ccc(OC)cc3)n2)nc1N | 8.19
50 | COCCOC(=O)C1=C(C)N(c2ccccc2)C(=S)NC1c1ccccc1C(F)(F)F (stereo not shown) | -5.87
51 | O=c1oc(-c2cccs2)nc2sc3c(c12)CCC3 | 4.93
52 | O=C(Nc1ccc(F)cc1F)C1CCCN(c2ncnc3c2nc2n3CCCCC2)C1 (stereo not shown) | -62
53 | Cn1c(SCC(=O)Nc2nccs2)nnc1C1CC1 | 13.4
54 | Cc1cc(C)cc(OCC(=O)OCc2nnc(-c3ccccc3)o2)c1 | 12.4
55 | C=CCNC(=O)/C(=C\c1ccc2c(c1)OCO2)NC(=O)c1ccc(Br)cc1 | -30
